{"source": "the supplement of paper PMC12632987", "binders": {"B1": {"name": "GBRAP_43_5797 (protein)", "chain": "MKELVEGTLDFARTALETPEISDETKAAIVEHAVEVAIDEGVLTPEQLRELLEALEASVSPETAAAALERILAIARELGAPAELVAIVEEALARARAKLA"}, "B2": {"name": "GBRAP_139_3731 (protein)", "chain": "NEAEEKIEKAVELAEKSMKTGGEYVKEIADLLNSMDEETAEKAAEAIAEVAKKESFDKVEKFFDELIETLLTEHKNEDLADIVEAARNRALAEVAVREEK"}, "B3": {"name": "GBRAP_52_6063 (protein)", "chain": "SKEKIEELAKKIYEAIKEGNLEKALELAEEAVKELSLEEIKEMLELTAKLVAKGNDEQHELFVEFLDKFEDIMIKEGISEEDALIIVGNAEATLAKEVAK"}, "B4": {"name": "GBRAP_11_2840 (protein)", "chain": "EKEKLKALAEAAAALAAELEALIASGAPTQEQLDALLKKAKALLAETKASGDKAAAKIAEIAVEEIEKAIADPATQQQHLQNALAAARVLEGQYLLKLEE"}, "B5": {"name": "GBRAP_39_5658 (protein)", "chain": "EEEEENELEFSYLVALAEKYRVDKGISDEELIEEGLKTLEKIAKENPEIKELVNELIELAKNGDLETKLAAAGIALLYKEGTPLEEIKEHIEKFINYVKS"}, "B6": {"name": "GBRAP_160_4456 (protein)", "chain": "SERLEKYLALIDEIREESIKLIEGETHEQRVVIIEGLFGEFLMELVEDESVSDELEDKVAEVIDELVEYLRENPDLTEEEIKELIDEAAEKIKEILKEEL"}, "B7": {"name": "GBRAP_26_5473 (protein)", "chain": "LEELFKKFLEKLEKALDELLDPELAAAAKAELATLVYEAEEKLEENKNDMEKQKKILEEFLKELGEELETLGVPEEKREKLLEIAKKEAEKILKELKEKQ"}, "B8": {"name": "GBRAP_137_3618 (protein)", "chain": "KTVTITFSEEDGVALATLEADPSVDHERLRELVERVAEETGAQVVEAYDENSDTLVLDLVGDRETIIAATRLLIRRLREELGAEVVLRSDGAEDLVEAVR"}}, "note": "Over roughly 4,500 sequences, “median log2 fold change of GCK-ALFA target abundance (FLAG IP / Myc IP barcode read proportion)” has its median near 0.078; the lowest 2% begin near -0.6. The list shows a part of the results.", "data": [{"target": "GABARAP, O95166", "sequence (O95166 whole entry, the tested form may be a part)": "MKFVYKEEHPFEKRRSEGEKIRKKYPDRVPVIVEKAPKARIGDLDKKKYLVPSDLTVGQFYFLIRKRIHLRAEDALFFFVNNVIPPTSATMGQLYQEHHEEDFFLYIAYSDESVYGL", "test": "median log2 fold change of GCK-ALFA target abundance (FLAG IP / Myc IP barcode read proportion) (log2 ratio); each designed protein is fused to an ALFA-tag nanobody in HEK293 cells to bring the named protein to FLAG-tagged glucokinase (GCK); Myc marks an untargeted standard; higher = target protein stabilised (more abundant)", "details": "target protein: 3xFLAG-MCP-GCK-ALFA reporter; HEK293 landing pad (RPLP)", "description": "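LABEL-seq trans screen in HEK293 landing-pad cells. Each de novo designed 100-aa effector handle, binding the indicated effector (E3 ligase, DUB or autophagy protein), is fused to a constant NbALFA target handle and induced with 2 ug/mL doxycycline. A FLAG-MCP-GCK-ALFA target and a Myc-MCP standard reporter were transfected, and after 48 h circRNA barcodes were recovered by anti-FLAG and anti-Myc IP and sequenced. The value is the median across barcodes (at least 3 per design) of log2(FLAG/Myc read-proportion ratio), with the two transfection replicates pooled. Negative values mean degradation and positive values mean stabilisation of the target.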", "values": [{"binder": "B1", "median log2 fold change": 0.088}, {"binder": "B2", "median log2 fold change": 0.207}, {"binder": "B3", "median log2 fold change": -0.183}, {"binder": "B4", "median log2 fold change": 0.322}, {"binder": "B5", "median log2 fold change": 0.256}, {"binder": "B6", "median log2 fold change": -0.275}, {"binder": "B7", "median log2 fold change": 0.0554}, {"binder": "B8", "median log2 fold change": 0.023}]}]}
